Laboratory results from PubChem BioAssay AID463173 (ICCB-Longwood Screening Facility, Harvard Medical School, 2010).
Among all 52,000 compounds or so, about 4,300 (8.3%) were called active. No stated cut-off is given here; in the data, active means survival mostly below about 52% (no sharp cut-off); inactive means mostly above about 56%. This is one part of the list.

test system: DeltatarO mutant; assay: growth inhibition of S. aureus wild type versus tarO mutant, primary screen, teichoic acid synthesis inhibitors, RN4220, OD600 (AID 463173); details: OD600, 18 h, active compounds read low, screened at 18.75 µg/mL (by protocol)

| Compound | survival |
| --- | --- |
| Cc1cccc(CS(=O)(=O)c2ncc(Cl)c(C(=O)Nc3nc4ccc(F)cc4s3)n2)c1 | active: -1% |
| Cn1nnnc1SCCNCc1ccccc1OCc1ccc(Cl)cc1Cl | inactive: 63% |
| CC(C)OCCCN(C)C1CCN(S(=O)(=O)c2csc(C(N)=O)c2)CC1 | inactive: 74% |
| CCOCCCNC(=O)Nc1cc(C(=O)NCc2ccc(C(C)C)cc2)ccc1N1CCCC1 | inactive: 87% |
| Cc1ccc(N2CCN(S(=O)(=O)c3ccc4oc(=O)c5ncn(C)c5c4c3)CC2)c(C)c1 | inactive: 128% |
| COc1ccc(-n2c(C)nc3cc(C(=O)NC4CCCC4)ccc32)cc1 | inactive: 77% |
| Cc1cccc(-c2nnc(SCC(=O)N3CCCc4ccccc43)o2)c1 | active: 11% |
| COc1cc2c(cc1OC)C(COc1ccc(F)cc1)N(C(=O)c1ccccc1F)CC2 (stereo unspecified) | inactive: 71% |
| Cc1ccc2nc(NC(=O)C(C)C)sc2c1 | inactive: 75% |
| Cc1ccccc1-c1nc(CS(=O)(=O)CC(=O)Nc2cccc(C(F)(F)F)c2)c(C)o1 | inactive: 112% |
| Cc1ccc(S(=O)(=O)NCCc2sc3nc(-c4ccccc4)nn3c2C)cc1C | inactive: 76% |
| COc1ccc2c(c1)c1c(c(=O)n(Cc3ccccc3)c(=O)n1CC(=O)Nc1c(C)cccc1C)n2C | inactive: 72% |
| O=C(c1cccc(Cl)c1)N(Cc1ccco1)Cc1ccccc1Cl | active: 32% |
| CCc1nc2onc(C)c2c(=O)n1CC(=O)O | inactive: 103% |
| CCOC(=O)c1[nH]c(Cc2[nH]c(C(=O)OCC)c(C)c2CC(=O)OC)c(CCC(=O)OC)c1C | inactive: 70% |
| COC(=O)c1ccc(C(=O)O)s1 | inactive: 93% |
| Cn1cnnc1SC1CCCCC1NS(=O)(=O)c1ccc(Cl)cc1 (stereo unspecified) | inactive: 66% |
| O=S(=O)(Nc1cccc(-c2ccc(N3CCCCCC3)nn2)c1)c1ccccc1 | active: 6% |
| Cc1oc(-c2cccc(Br)c2)nc1Cn1c(=O)cc(-c2ccccc2)c2c(C)nn(C)c21 | inactive: 88% |
| CC(C)(C)c1ccc(OCCCC(=O)N2CCOCC2)cc1 | inactive: 96% |
| COc1ccc(-c2noc(Cn3c(=O)c4ccccc4n(CC(=O)Nc4cccc(C(F)(F)F)c4)c3=O)n2)cc1 | inactive: 92% |
| CC(C)NC(=O)N1CCC(N2CCN(Cc3ccc(F)cc3)C(=O)C2=O)CC1 | inactive: 101% |
| CCOc1ccc(N(CC)S(=O)(=O)N2CCCC(C(=O)NCc3ccc(Cl)cc3)C2)cc1 (stereo unspecified) | inactive: 69% |

| Compound | survival |
| --- | --- |
| O=C(Cc1ccc(F)cc1)NCCc1csc(-c2cccc(F)c2)n1 | inactive: 88% |
| O=C(Nc1ccc2nc(SCC(=O)N3CCCc4ccccc43)sc2c1)c1cccc(Cl)c1 | inactive: 88% |
| COCCCNS(=O)(=O)c1ccc(N2CCCCS2(=O)=O)cc1 | inactive: 67% |
| O=C(NC1CSCC1=O)c1ccccc1 (stereo unspecified) | inactive: 69% |
| CN(C(=O)c1ccc(Br)cc1)C1CCCCC1 | inactive: 70% |
| Cc1ccc(NC(=O)CN2C(=O)CSc3ccc(S(=O)(=O)N4CCCC4)cc32)c(C)c1 | inactive: 92% |
| COc1ccc(C(=O)Oc2c(Sc3ccccc3)c(C)nn2-c2ccccc2)cc1OC | inactive: 47% |
| COc1ccccc1NC(=O)C1=C(C)Nc2nc3ccccc3n2C1c1cccc(Br)c1 (stereo unspecified) | inactive: 79% |
| COc1ccc(N2CCN(Cc3cc(=O)oc4ccc(OC)cc34)CC2)cc1 | inactive: 86% |
| CCc1ccccc1Nc1cc(C(=O)NCCc2ccccc2)c2ccccc2n1 | inactive: 95% |
| CCOc1ccc2nc(NCCNC(=O)C3CCCCC3)c(C#N)cc2c1 | inactive: 106% |
| CCCOc1ccc(Nc2cc(C)nc(C)n2)cc1 | inactive: 64% |
| O=C(Cn1c(=O)n(-c2ccc(F)cc2)c(=O)c2sc3ccccc3c21)NC1CCCCC1 | inactive: 79% |
| CCOC(=O)c1ccc2c(c1)N(Cc1cccc(C(F)(F)F)c1)C(=O)c1ccccc1S2(=O)=O | inactive: 90% |
| O=C(NCC(c1cccnc1)N1CCOCC1)C(=O)Nc1ccc(F)cc1 (stereo unspecified) | inactive: 81% |
| Cn1c(SCc2cccc(F)c2)nc2c([nH]c3ccccc32)c1=O | inactive: 120% |
| CCCn1ccc2c(OCC(=O)Nc3ccccc3OCC)cccc2c1=O | inactive: 102% |
| COc1ccc(OC)c(CCNc2nccn(-c3ccc(C)c(C)c3)c2=O)c1 | inactive: 100% |
| Cc1ccc(CNC(=O)CCC(=O)N2Cc3ccccc3Oc3ncccc32)cc1 | inactive: 71% |
| COc1ccc(Cn2c(=O)[nH]c3cc(C(=O)N4CCN(c5ccccc5)CC4)ccc3c2=O)cc1 | inactive: 135% |
| COc1cc(-c2noc(CSc3nc(-c4ccc(F)cc4)cc(=O)[nH]3)n2)cc(OC)c1OC | inactive: 69% |
| CCC1CCC(C(=O)NC(C(=O)NCCN(CC(C)C)CC(C)C)C(C)C)CC1 (stereo unspecified) | inactive: 67% |
| COc1ccccc1NC(=O)Cn1cnc2c(nc3n2CCCCC3)c1=O | inactive: 96% |

| Compound | survival |
| --- | --- |
| CC1CCN(S(=O)(=O)c2ccc3c(c2)c(=O)c(C(=O)NCc2ccc(Cl)cc2)cn3C)CC1 | inactive: 68% |
| Cc1ccccc1CNC(=O)c1ccccc1NC(=O)c1nsc2ccccc12 | inactive: 109% |
| O=C(Nc1ccc(Cl)c(C(F)(F)F)c1)C1CCCN(S(=O)(=O)c2cccc3cccnc23)C1 (stereo unspecified) | inactive: 70% |
| CC(C)(C)c1ccc(CSc2nc3c(c(=O)[nH]2)CCCC3)cc1 | inactive: 104% |
| COc1ccccc1NC(=O)c1oc2ccccc2c1NC(=O)C(C)C | inactive: 103% |
| COCCn1c(C)cc(C=C2C(=O)NC(=O)NC2=O)c1C | inactive: 100% |
| Cc1cccc(NC(=O)CSc2nnc3scc(-c4ccccc4)n23)c1 | active: 40% |
| COc1cccc(-c2nnc(-c3cc4cc(Cl)ccc4oc3=O)o2)c1 | inactive: 140% |
| COc1ccc(Cn2ccc3nc(C)c(C(=O)Nc4ccc(F)cc4)cc3c2=O)cc1 | active: 20% |
| CCn1cc(C(=O)NCCc2ccc(Cl)cc2)c(=O)c2cc(S(=O)(=O)N3CCc4ccccc4C3)ccc21 | active: 54% |
| COCCCNC(=O)c1[nH]c2cc(OC)ccc2c1Sc1ccc(C)cc1 | inactive: 109% |
| O=C(Nc1ccc(F)cc1)N1CCN(c2ccc3nnc(-c4ccc(F)cc4)n3n2)CC1 | inactive: 102% |
| Cc1ccc(-n2nnc(-c3nsc(NC(=O)c4ccccc4C)n3)c2C)cc1Cl | inactive: 134% |
| COCCN(Cc1cc2ccc(C)c(C)c2nc1Cl)C(=O)N1CCOCC1 | inactive: 89% |
| CCOc1ccc(Nc2c(S(=O)(=O)c3ccc(Cl)cc3)cnc3ccc(OC)cc23)cc1 | inactive: 67% |
| COc1ccc(-c2c3c(=O)n(C)c(=O)n(C)c3cn2-c2cccc(N)c2)cc1 | inactive: 79% |
| COc1ccc(-c2cn3c(n2)sc2cc(C(=O)NCc4cccs4)ccc23)cc1 | active: 55% |
| CCOC(=O)CC(NC(=O)CCc1c(C)nc2c(-c3ccccc3)c(C)nn2c1C)c1ccc(C)cc1 (stereo unspecified) | inactive: 63% |
| Cc1ccc(CNC(=O)C2CCN(C(=O)c3ccc(-n4ccc5ccccc54)s3)CC2)cc1 | inactive: 84% |
| O=C(NCCOCCO)C(=O)Nc1c2c(nn1-c1ccc(F)cc1)CSC2 | inactive: 79% |
| Cc1ccc2cc3cc(C(=O)N4CCN(c5cccc(C(F)(F)F)c5)CC4)sc3nc2c1 | inactive: 102% |
| CN(c1ncnc2c1c(-c1ccccc1)cn2-c1ccc(F)cc1)C1CCCCC1 | inactive: 102% |
| CCC(=O)N1CCc2cc(S(=O)(=O)CCC(=O)N3CCN(c4ccccc4Cl)CC3)ccc21 | inactive: 102% |

| Compound | survival |
| --- | --- |
| CCOC(=O)c1cc(-c2ccccc2)n(CCC(=O)Nc2ccc(C(F)(F)F)cc2)c1C | inactive: 131% |
| O=C(NCCn1cc(SCc2cccc(F)c2)c2ccccc21)c1cccc(C(F)(F)F)c1 | active: 35% |
| Cc1ccc(N(Cc2cccs2)C(=O)c2ccccc2)cc1 | inactive: 60% |
| Cc1c(NC(=O)Cc2ccc(F)cc2)cccc1-c1nc2cccnc2s1 | inactive: 91% |
| COCCn1c(=S)[nH]c2ccccc2c1=O | inactive: 109% |
| Cc1cccc(NC(=O)CSc2nc3ccc(NC(=O)COc4ccc(Cl)cc4)cc3s2)c1 | inactive: 71% |
| Fc1ccc(-c2nc(-c3cccs3)c(-c3cccs3)[nH]2)cc1 | inactive: 64% |
| O=C(Nc1nnc(SCc2cc(=O)c3ccccc3[nH]2)s1)c1ccccc1 | inactive: 79% |
| Cc1nn(-c2ccccc2)c2c1N(CC(=O)NCc1ccc(N(C)C)cc1)C(=O)CS2 | inactive: 83% |
| N#CC1=C(N)C(C#N)(C#N)C(c2ccco2)C2CN(Cc3ccccc3)CC=C12 (stereo unspecified) | inactive: 89% |
| CN1C(=O)C(CC(=O)NCC2CCCCC2)SC1=Nc1ccccc1 (stereo unspecified) | inactive: 90% |
| COc1ccc(-c2nc3ccc(NS(C)(=O)=O)cc3o2)cc1 | inactive: 77% |
| Clc1ccccc1Cn1cccc1C1=NC(Cc2ccccc2)CO1 (stereo unspecified) | active: 40% |
| O=C(O)c1ccc(Nc2nc(-c3ccccc3)c3cc(Br)ccc3n2)cc1 | active: 21% |
| CCCC1OC2CC3C4CCC5=CC(=O)C=CC5(C)C4C(O)CC3(C)C2(C(=O)O)O1 (stereo unspecified) | inactive: 108% |
| Cn1c(SCC(N)=O)nc2c([nH]c3ccccc32)c1=O | inactive: 88% |
| CCCN(C(=O)C(=O)Nc1ccc2nc3n(c(=O)c2c1)CCCCC3)c1ccc(OCC)cc1 | inactive: 58% |
| COc1cccc(CNC(=O)CSc2nc(=O)[nH]c3c2CCC3)c1 | inactive: 80% |
| CCOc1ccccc1C(=O)Nc1cccc2ccc(C)nc12 | inactive: 68% |
| CC(SC(=S)N1CCCCCC1)C(=O)O (stereo unspecified) | inactive: 90% |
| O=C(NCCc1csc(-c2ccc(Cl)cc2)n1)c1ccco1 | inactive: 101% |
| COc1ccc(CCNc2nc3ccc(Cl)cc3n3cnnc23)cc1OC | inactive: 91% |
